Several values for one entry are separate records, joined by “and”; a condition that tells them apart may be missing. Identical values can stand only once.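 48-hour exposure; five concentrations; linearly interpolated endpoints. GI50 is the concentration that inhibits growth by half. TGI marks complete inhibition of growth.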 Square brackets hold non-standard residues; d marks the D form. Peptide text beside a SMILES is read from it. * marks the point of attachment. Phe(4-NO2) = N[CH](Cc1ccc([N+](=O)[O-])cc1)C(=O)O; Boc = CC(C)(C)OC(=O)*
Tested on: NCI-H322M lung
Test: NCI-60 cell line screen, 48 h

| Structure (SMILES) | TGI | GI50 |
| --- | --- | --- |
| Cc1c(O)c(Br)c(C)c(O)c1Br (tested in a mixture with another compound) | 33.4 µM |  |
| CSc1nc2nc(C(O)C(O)C(O)CO)cnc2c(=O)[nH]1 (stereo unspecified) | > 100 µM |  |
| CNc1ncc2cc(-c3cc(NC(=O)NCCC(C)(C)C)c(F)cc3C)c(C)nc2n1 | > 100 µM | 0.236 µM and 0.287 µM |
| O=C(NC1C(=O)NNC1c1ccccc1Cl)c1ccccc1 (stereo unspecified) | > 100 µM |  |
| O=c1[nH]c(SCc2ccccc2[N+](=O)[O-])nc2nc[nH]c12 | > 100 µM | > 100 µM and 40.4 µM |
| O=C(/C=C/c1ccc(O)cc1)c1cc(Cl)ccc1O | > 100 µM |  |
| N#Cc1cn(-c2c3ccccc3nc3ccccc23)c(=O)[nH]c1=O | 28.8 µM |  |
| O=C(Nc1ccccc1)Nc1ccc(Cl)c(Cl)c1 | 65.9 µM | 3.76 µM |
| Cc1cn2c(/C=C3/C(=O)Nc4ccc(Cl)cc43)c(C)nc2s1 | > 37.2 µM | 1.97 µM |
| NS(=O)(=O)c1nnc(NS(=O)(=O)c2ccc(Cl)cc2)s1 | > 100 µM |  |
| CSc1nc(Br)nc2ncn(C3CC(Oc4ccc(C)cc4)C(COc4ccc(C)cc4)O3)c12 (stereo unspecified) | > 100 µM |  |
| N#CCC1(c2ccc(Cl)cc2)NC(=O)c2ccccc21 (stereo unspecified) | > 100 µM |  |
| Cc1ccc(/C=C2\NC(=S)N(CN3CCCCC3)C2=O)cc1 | > 100 µM |  |
| c1ccc([P+](c2ccccc2)(c2ccccc2)c2ccc(-c3ccc([P+](c4ccccc4)(c4ccccc4)c4ccccc4)cc3)cc2)cc1 | > 100 µM |  |
| O=c1c2cc(S(=O)(=O)O)ccc2nc(COc2ccc(Oc3ccc(Cl)cc3Cl)cc2)n1C(=S)Nc1ccc(Cl)cc1 | > 100 µM |  |
| ClCCCCOC1CCCCO1 (stereo unspecified) | > 100 µM |  |
| O=C(N/N=C/c1ccc(Cl)cc1)c1ccccc1Nc1ccccc1C(=O)N/N=C/c1ccc(Cl)cc1 | > 100 µM |  |
| c1ccc2c(c1)N=C(c1ccc3ccccc3c1)CC(c1cccc3ccccc13)S2 (stereo unspecified) | > 100 µM |  |
| O=C1C(Br)=CC2(C=C1Br)CCNc1c(O)c3c4c(c12)=NCCC=4C=N3 | 2.86 µM |  |
| CN1CCc2cc3c4cc2C1Cc1ccc(cc1)Oc1cc(ccc1O)CC1c2c(cc(O)c(c2O4)O3)CCN1C (stereo unspecified) | 5.7 µM |  |
| CC1C(=O)C(C)C(c2ccco2)N(N=O)C1c1ccco1 (stereo unspecified) | > 100 µM |  |
| COc1cc(NC(C)CCCN2C(=O)c3ccccc3C2=O)c2ncccc2c1OC (stereo unspecified) | > 100 µM | > 100 µM |
| COC(=O)CCC(NC(=O)OC(C)(C)C)C(=O)NC(Cc1ccc([N+](=O)[O-])cc1)C(=O)NC(CCC(=O)OC)C(=O)OC (stereo unspecified) (Boc-Glu(OMe)-[Phe(4-NO2)]-Glu(OMe)-OMe; configuration not given here) | > 100 µM |  |
| COC(=O)N/N=C(\c1ccccc1)c1ccc(OC)cc1 | > 100 µM |  |
| CCc1ccc([O-])c(C=NCCCN(C)CCCN=Cc2cc(C)ccc2[O-])c1.[Co+3].[N-]=[N+]=[N-] | 50 µg/mL and > 150 µg/mL | 50 µg/mL and 118 µg/mL |

— PubChem BioAssay (NCI)
